{"source": "PubChem BioAssay AID1865", "about": "(National Center for Advancing Translational Sciences (NCATS), 2009)", "note": "Screen size: about 280,000 compounds; about 540 (0.19%) were called active. Inconclusive results, whose numbers are uncertain, are shown with a selection of clear calls. Calls come from the whole dose curve; as a rule, active = well fitted activation curve with a large enough effect; inconclusive = small, poorly fitted or top-dose-only effect; inactive = flat fitted curve, though single readings scatter. Potencies beside an inconclusive call are fits to weak or partial responses and may not hold up. Potency is the fitted concentration of half-maximal effect; tags give direction and shape of the fitted curve.", "data": [{"assay": "Quantitative High-Throughput Screen for Regulators of Epigenetic Control; note: nearly all actives have a fitted effect of over 60% in size; for GFP activation: % of control where 0% means no effect", "details": "murine LDR cells, GFP reporter derepression, 30 h; GFP activation: at 53.9 µM (top of the series)", "how_it_was_run": "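In this reporter-derepression format, murine cells bearing a silenced integrated CMV-GFP locus incubate with test compound (30 h, 37 C), then are washed and imaged; fluorescent objects of 20–120 um count as induced cells.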", "values": [{"compound": "COc1ccccc1N1CCN(C(=O)CSc2nnc(-c3ccoc3C)o2)CC1", "Potency": "inconclusive: 3.55 µM [activator, single point]"}, {"compound": "Cc1nonc1OCCNCc1c(C(=O)N(C)C)nc2ccc(Cl)cn12", "Potency": "inconclusive: 35.5 µM [activator, single point]"}, {"compound": "OCCCc1nc2n(n1)C(c1cccs1)C=C(c1ccccc1)N2", "note": "(stereo not drawn)", "Potency": "inconclusive: 25.1 µM [activator, partial curve]"}, {"compound": "CCOc1ccc(N2CC(NC(=O)c3ccc(S(=O)(=O)N4CCCCC4)cc3)CC2=O)cc1", "note": "(stereo not drawn)", "Potency": "inconclusive: 35.5 µM [activator, single point]"}, {"compound": "Cc1ccc(C2=NN(S(C)(=O)=O)C(c3ccc4c(c3)OCO4)C2)cc1", "note": "(stereo not drawn)", "Potency": "inconclusive: 35.5 µM [activator, single point]"}, {"compound": "CCc1ccc(S(=O)(=O)c2nnn3c2nc(NC(C)C)c2sccc23)cc1", "GFP activation": "inactive: 2.59%"}, {"compound": "CCCCCCCCCCCCCCCC(=O)NCCc1ccc(O)c(O)c1", "Potency": "inconclusive: 22.4 µM [activator, single point]"}, {"compound": "COc1ccc(S(=O)(=O)N(C)C)cc1NC(=O)CSc1nnc(-c2cccnc2)o1", "Potency": "inconclusive: 5.62 µM [activator, single point]"}, {"compound": "CC(=O)N1CCc2nc3sc(C(=O)Nc4ccc(Cl)cc4F)c(N)c3c(C(F)(F)F)c2C1", "Potency": "inconclusive: 5.62 µM [activator, single point]"}, {"compound": "CC1(C)CC(=O)C(C(C2=C(O)CC(C)(C)CC2=O)c2ccc(Br)s2)C(=O)C1", "note": "(stereo not drawn)", "Potency": "inconclusive: 35.5 µM [activator, single point]"}, {"compound": "COc1ccc(N2C(=O)[C@@H]3[C@H](C2=O)[C@H]2C=CC=NN2[C@@H]3C(=O)Nc2ccc(Cl)cc2)cc1", "Potency": "inconclusive: 35.5 µM [activator, single point]"}, {"compound": "CC(C)c1nc2sc3c(SCC(=O)NCc4ccco4)ncnc3c2c2c1CCC2", "Potency": "inconclusive: 22.4 µM [activator, single point]"}, {"compound": "COc1cc(NC(=S)N2CCN(C(c3ccccc3)c3ccccc3)CC2)cc(OC)c1", "GFP activation": "inactive: -4.47%"}, {"compound": "CCOC(=O)Cn1c(=NC(=O)c2ccc([N+](=O)[O-])s2)sc2ccccc21", "Potency": "inconclusive: 25.1 µM [activator, single point]"}, {"compound": "Cc1nn(-c2ccccc2)c(Cl)c1/C=C1\\SC(=S)N(CCCCCC(=O)O)C1=O", "GFP activation": "inactive: -1.57%"}, {"compound": "O=C(Nc1cc(C(F)(F)F)ccc1Cl)c1cc(-c2ccc3c(c2)OCCO3)on1", "GFP activation": "inactive: -1.61%"}, {"compound": "O=C(N/N=C/C1CC=CCC1)c1ccc(O)cc1O", "note": "(stereo not drawn)", "GFP activation": "inactive: 3.17%"}, {"compound": "CC(CNC(=O)c1ccc(Cn2c(=O)c3cccn3c3cccnc32)cc1)c1ccccc1", "note": "(stereo not drawn)", "Potency": "inconclusive: 10 µM [activator, partial curve]"}, {"compound": "O=P(c1ccccc1)(c1ccccc1)c1nc(-c2ccccc2)oc1N1CCOCC1", "GFP activation": "inactive: 0.0114%"}, {"compound": "Cc1cn2c(=O)cc(COC(=O)c3ccc(NC(=O)c4ccccc4C)cc3)nc2s1", "GFP activation": "inactive: -3.36%"}, {"compound": "CCN(CC)CCOC(=O)c1ccc(NC(=O)c2cc3c(s2)-c2ccccc2OC3)cc1", "Potency": "inconclusive: 35.5 µM [activator, single point]"}, {"compound": "NC(=O)CSc1nnc(-c2ccc(S(=O)(=O)N3CCCC3)cc2)n1CC1CCCO1", "note": "(stereo not drawn)", "Potency": "inconclusive: 15.8 µM [activator, partial curve]"}, {"compound": "CCOc1ccc2c(c1)C(=NNC(=O)c1ccncc1)c1cc(OCC)ccc1-2", "Potency": "inconclusive: 35.5 µM [activator, single point]"}, {"compound": "COC(=O)COc1ccc(-c2nnc(Nc3ccc(O)cc3)c3ccccc23)cc1", "Potency": "inconclusive: 35.5 µM [activator, single point]"}, {"compound": "CSC(=S)NCc1cccnc1", "Potency": "inconclusive: 35.5 µM [activator, single point]"}, {"compound": "Cc1cc(C)c2nc(SCC(=O)N3CC(=O)Nc4ccccc43)c(C#N)cc2c1", "Potency": "active: 10 µM"}, {"compound": "Cn1c2ccc(F)cc2c2ncn(CCN3CCOCC3)c(=O)c21", "GFP activation": "inactive: -1.08%"}, {"compound": "C=CCN(C(=O)CSc1nc2[nH]ncc2c(=O)n1-c1ccccc1OC)c1ccccc1", "GFP activation": "inactive: -1.98%"}, {"compound": "CCCNc1c(F)c(F)c2c(C)c3ccccc3nc2c1F", "Potency": "inconclusive: 22.4 µM [activator, single point]"}, {"compound": "O=C(O)CN(CC(=O)O)Cc1cc2c(-c3ccccc3C(=O)O)c3cc(CN(CC(=O)O)CC(=O)O)c(=O)cc-3oc2cc1O", "Potency": "inconclusive: 20 µM [activator, partial curve, poor fit]"}, {"compound": "COc1ccc(CCNC(=O)CSc2nc(-c3ccc(OC)c(OC)c3)ccc2C#N)cc1", "Potency": "inconclusive: 31.6 µM [activator, single point]"}, {"compound": "COc1cccc(NC(=O)CSc2c3c(nc4ccccc24)CCCC3)c1", "Potency": "inconclusive: 25.1 µM [activator, single point]"}, {"compound": "O=C(CN1CCCc2ccccc21)N/N=C/c1ccccc1O", "GFP activation": "inactive: 3.09%"}, {"compound": "O=C(Nc1ccccc1C(F)(F)F)N1CC=C(c2c[nH]c3ccccc23)CC1", "Potency": "inconclusive: 25.1 µM [activator, single point]"}, {"compound": "O=S(=O)(c1cccc2nsnc12)N1CCN(C/C=C\\c2ccccc2)CC1", "Potency": "inconclusive: 15.8 µM [activator, partial curve, poor fit]"}, {"compound": "CCOC(=O)c1cccc(NC(=O)N2CC=C(c3c[nH]c4ccccc34)CC2)c1", "Potency": "inconclusive: 25.1 µM [activator, single point]"}, {"compound": "Fc1cc(Br)ccc1Nc1nc2ccccc2n2nnnc12", "Potency": "inconclusive: 35.5 µM [activator, single point]"}, {"compound": "CNC(=S)N/N=C/c1c(Cl)cccc1Cl", "GFP activation": "inactive: 5.18%"}, {"compound": "O=C1COc2ccc(C(=O)CCl)cc2N1", "Potency": "inconclusive: 31.6 µM [activator, single point]"}, {"compound": "CC(=O)N1CCc2c(sc3c2c(=O)n(-c2ccc(C)cc2)c(=O)n3Cc2ccccc2C)C1", "GFP activation": "inactive: 0%"}, {"compound": "O=C(OCCN1C(=O)c2cccc3c(N4CCOCC4)ccc(c23)C1=O)c1cccc(Cl)c1", "Potency": "active: 20 µM"}, {"compound": "COc1ccccc1NC(=O)Cn1c(=O)n(-c2ccccc2)c(=O)c2oc3ccccc3c21", "Potency": "inconclusive: 14.1 µM [activator, single point]"}, {"compound": "COc1cc(/C=C(\\C#N)c2nc3ccccc3[nH]2)cc(Br)c1OCc1ccccc1", "Potency": "inconclusive: 25.1 µM [activator, single point]"}]}]}
